16 compounds from article PMC5540273 (PLoS ONE, 2017) can be followed below.

For part of these data: What follows is the remainder of the data, with few or none of the hits. For part of these data: Most of the strong results are listed elsewhere, so they are rarer here than in the full data. Only a part is listed here, and it is no random draw. This is one part of the list. Some results are limits rather than exact numbers.

Assay [1] relates to AAK1. The conditions noted are these: concentration: 1 μM,replicates: in singlicate; n = 1.
The subject of assay [2] is ABL1-nonphosphorylated. Conditions: concentration: 1 μM,replicates: in singlicate; n = 1.
The test system of assay [3] is ABL1-phosphorylated. Conditions: concentration: 1 μM,replicates: in singlicate; n = 1.
The subject of assay [4] is ABL2. The conditions noted are these: concentration: 1 μM,replicates: in singlicate; n = 1.
The subject of assay [5] is ACVR1B. Conditions: concentration: 1 μM,replicates: in singlicate; n = 1.
For assay [6], the system named is ACVR1. Conditions: concentration: 1 μM,replicates: in singlicate; n = 1.
Assay [7] relates to ACVR2A. The conditions noted are these: concentration: 1 μM,replicates: in singlicate; n = 1.
Assay [8] has as its system ACVR2B. Conditions: concentration: 1 μM,replicates: in singlicate; n = 1.
The subject of assay [9] is PIM1.
The subject of assay [10] is PRKCI.
Assay [11] relates to T1, YANK2.
T1 construct: gene STK32B

For assay [12], the system named is ZAP70.
For assay [13], the system named is PIP5K1A.
Assay [14] has as its system PIP5K1C.
Assay [15] concerns T2, PCTK2.
T2 construct: gene CDK17

For assay [16], the system named is ULK3.
Assay [17] has as its system PIK3C2G.
Assay [18] has as its system PIK3CD.
Assay [19] relates to SLK.
Assay [20] relates to NEK10.
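For %Inh in this document: KINOMEscan kinase panel screen.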
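For Kd in this document: kd values determined as follow-up on hits from a single-replicate KINOMEscan panel screen.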

As to `CS(=O)(=O)c1ccccc1-c1nc(-c2ccc(F)cc2)c(-c2ccncc2)[nH]1` [SB-213663], the “%Inh” value in [1] turned out to be 0%; in [2], 53%; in [3] it was 0%; in assay [4], 0%; in [5], 4%; in assay [6], 0%. Also, the “%Inh” value in assay [7] and in [8] was 0% each time.

Turning to `O=C1NC(=O)C(c2ccccc2Cl)=C1Nc1ccccc1` [SB-376715], the “%Inh” value in assay [1] was determined as 5%; in [2], 0%; in [3], 0%; in [4] it was 1%; in assay [5] it was 0%; in assay [6], 20%. Besides, the “%Inh” value in assay [7] and in assay [8] was 0% in each case.

Take `Cc1cc(C)cc(Oc2nccc(-c3c(-c4ccc(F)cc4)ncn3C3CCNCC3)n2)c1.O=C(O)C(F)(F)F.O=C(O)C(F)(F)F.O=C(O)C(F)(F)F` [SB-284851]: the Kd (in general, the concentration at which binding is half-saturated) in assay [9] is greater than 10 µM; in [10] it was greater than 10 µM; in [11] it was 0.16 µM. Further, the “%Inh” value in assay [1] amounted to 13%; in assay [2], 45%; in [3], 35%; in assay [4] it was 1%; in [5] it was 0%; in assay [6], 0%. In addition, the “%Inh” value in [7] came to 0%; in [8] it was 14%.

The compound `O=C1NC(=O)C(c2ccc(Cl)cc2)=C1Nc1ccccc1` [SB-317661] yielded a Kd in [12] greater than 10 µM. Besides, the “%Inh” value in assay [1] was found to be 0%; in assay [2] it was 12%; in [3], 30%; in assay [4] it was 0%; in assay [5] it was 0%; in assay [6] it was 0%. The “%Inh” value in assay [7] and in assay [8] was 0% each time.

Consider `O=C(O)c1ccc(-c2nc(-c3ccc(F)cc3)c(-c3ccncc3)[nH]2)cc1` [SB-202620], for which the “%Inh” value in assay [1] came to 3%; in assay [2], 56%; in assay [3], 49%; in assay [4], 1%; in assay [5] it was 71%; in [6] it was 7%. For the same compound, the “%Inh” value in [7] is 0%; in assay [8], 43%.

As for `CSc1ccc(NC2=C(c3cccc(Cl)c3)C(=O)NC2=O)cc1` [SB-341528], the Kd in [13] is greater than 10 µM. Further, the “%Inh” value was 0% in assay [1]; 11% in assay [2]; 15% in assay [3]; 0% in assay [4]; 0% in assay [5]; 0% in [6]. Moreover, the “%Inh” value in assay [7] is listed as 24%; in assay [8], 0%.

With `O=C1NC(=O)C(c2ccc(Cl)cc2)=C1Nc1cccc(O)c1` [SB-333613], the “%Inh” value in assay [1] is 27%; in assay [2], 0%; in [3] it was 3%; in assay [4], 0%; in assay [5], 10%; in assay [6] it was 0%. Besides, the “%Inh” value in assay [7] amounted to 19%; in assay [8], 10%.

For the compound `O=C1NC(=O)C(c2ccc(Cl)cc2)=C1Nc1cccc(C(=O)O)c1` [SB-360737], the “%Inh” value in assay [1] is 6%; in [2] it was 5%; in [3], 14%; in assay [4], 15%; in assay [5], 0%; in assay [6], 6%. Further, the “%Inh” value in [7] is on record as 0%; in assay [8], 6%.

With `Cc1ccc(C)c(Oc2nccc(-c3c(-c4ccc(F)cc4)ncn3C3CCNCC3)n2)c1.O=C(O)C(F)(F)F.O=C(O)C(F)(F)F.O=C(O)C(F)(F)F` [SB-284852], the “%Inh” value in [1] was found to be 0%; in assay [2], 53%; in assay [3], 14%; in [4], 13%; in [5], 20%; in assay [6] it was 0%. Further, the “%Inh” value in assay [7] worked out at 100%; in assay [8], 14%.

`O=C1NC(=O)C(c2ccccc2)=C1Nc1cc(Cl)c(O)c(Cl)c1` [SB-390530] yielded a Kd in assay [14] of 1.5 µM. Besides, the “%Inh” value in [1] turned out to be 0%; in assay [2] it was 31%; in [3] it was 0%; in assay [4] it was 19%; in assay [5], 3%; in assay [6], 0%. Also, the “%Inh” value in assay [7] worked out at 10%; in [8], 23%.

For the compound `COc1cccc(C2=C(Nc3ccc(SC)cc3)C(=O)NC2=O)c1` [SB-331032], the “%Inh” value was found to be 17% in assay [1]; 0% in [2]; 31% in [3]; 5% in assay [4]; 28% in [5]; 0% in [6]. Besides, the “%Inh” value in assay [7] and in [8] was 0% throughout.

In turn, `O=C1NC(=O)C(c2ccc(Cl)cc2)=C1Nc1ccc(O)c(Cl)c1` [SB-405367] came in with a Kd in assay [15] greater than 10 µM. Besides, the “%Inh” value in [1] was 27%; in assay [2], 34%; in [3], 15%; in assay [4], 0%; in assay [5] it was 0%; in [6] it was 0%. Besides, the “%Inh” value in assay [7] is reported as 24%; in assay [8] it was 0%.

`O=C1NC(=O)C(c2ccccc2Cl)=C1Nc1cccc(C(=O)O)c1` [SB-390526] returned a Kd in [16] greater than 10 µM. Moreover, the “%Inh” value in [1] came to 0%; in assay [2], 0%; in [3], 99.3%; in assay [4] it was 10%; in assay [5] it was 22%; in assay [6], 0%. For the same compound, the “%Inh” value in assay [7] and in [8] was 0% throughout.

Consider `COc1ccc(C2=C(Nc3cccc(Cl)c3)C(=O)NC2=O)cc1` [SB-326892], for which the Kd in assay [17] was greater than 10 µM; in assay [18], greater than 10 µM; in assay [19], 6.3 µM. Besides, the “%Inh” value came to 0% in assay [1]; 10% in [2]; 0% in assay [3]; 1% in assay [4]; 20% in assay [5]; 0% in assay [6]. For the same compound, the “%Inh” value in [7] is 3%; in assay [8], 20%.

In the case of `O=C1NC(=O)c2c1c(-c1ccccc1)cc1[nH]c3ccc(O)cc3c21`, the “%Inh” value in assay [3] came out at 39%; in [4], 18%; in assay [5], 25%; in [6], 0%; in assay [7] it was 0%; in assay [8] it was 0%.

The compound `O=C1NC(=O)C(c2ccccc2)=C1Nc1ccc(Cl)c(C(=O)O)c1` [SB-390532] had a dissociation constant (Kd) in assay [20] of 0.46 µM. Also, the “%Inh” value in assay [1] was determined as 8%; in [2], 20%; in assay [3], 3%; in assay [4], 11%; in [5], 0%; in assay [6] it was 0%. Moreover, the “%Inh” value is reported as 0% in assay [7] and 1% in assay [8].
